Screen size: about 310,000 compounds; about 2,200 (0.71%) showed an effect of 50% or more. The effect is printed as a negative number. Some of the results follow.

The target in the assay is human ether-à-go-go-related gene (hERG) potassium channel (human, UniProt Q12809). As to the kind of experiment: primary screen, population patch clamp on CHO cells stably expressing hERG.
Chain of human ether-à-go-go-related gene (hERG) potassium channel (Q12809 whole entry, looked up): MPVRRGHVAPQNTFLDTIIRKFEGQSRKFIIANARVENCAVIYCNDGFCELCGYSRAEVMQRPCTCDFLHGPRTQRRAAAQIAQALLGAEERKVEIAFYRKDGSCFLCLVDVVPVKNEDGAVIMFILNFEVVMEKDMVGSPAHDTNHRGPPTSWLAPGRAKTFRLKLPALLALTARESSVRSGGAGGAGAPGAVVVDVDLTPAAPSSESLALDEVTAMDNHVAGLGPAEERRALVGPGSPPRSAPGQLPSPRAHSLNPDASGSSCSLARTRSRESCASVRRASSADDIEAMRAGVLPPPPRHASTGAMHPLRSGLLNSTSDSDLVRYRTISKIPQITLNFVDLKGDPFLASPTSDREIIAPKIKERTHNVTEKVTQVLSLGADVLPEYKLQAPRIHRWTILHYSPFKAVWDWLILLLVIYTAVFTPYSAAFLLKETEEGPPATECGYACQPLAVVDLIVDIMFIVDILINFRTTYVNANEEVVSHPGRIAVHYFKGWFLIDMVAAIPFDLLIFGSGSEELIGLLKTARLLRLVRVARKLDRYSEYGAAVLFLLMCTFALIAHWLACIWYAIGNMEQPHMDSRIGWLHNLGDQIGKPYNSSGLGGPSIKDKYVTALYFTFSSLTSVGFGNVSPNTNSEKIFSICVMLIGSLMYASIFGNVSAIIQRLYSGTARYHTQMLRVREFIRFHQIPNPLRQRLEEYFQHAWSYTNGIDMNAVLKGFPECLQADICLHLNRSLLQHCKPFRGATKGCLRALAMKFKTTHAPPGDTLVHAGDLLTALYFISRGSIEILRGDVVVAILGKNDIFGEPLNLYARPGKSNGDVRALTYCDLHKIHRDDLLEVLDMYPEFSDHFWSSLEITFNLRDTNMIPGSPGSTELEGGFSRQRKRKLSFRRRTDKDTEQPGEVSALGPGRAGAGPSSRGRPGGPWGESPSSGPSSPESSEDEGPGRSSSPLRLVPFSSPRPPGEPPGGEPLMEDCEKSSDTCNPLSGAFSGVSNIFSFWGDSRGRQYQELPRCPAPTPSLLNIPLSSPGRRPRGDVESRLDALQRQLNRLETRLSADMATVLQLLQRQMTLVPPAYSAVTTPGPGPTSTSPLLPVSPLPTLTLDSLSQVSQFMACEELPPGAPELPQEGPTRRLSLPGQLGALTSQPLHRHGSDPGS
`Cc1onc(C(=O)N2CCC(C(N)=O)CC2)c1-c1ccccc1Cl`: the “hERG current change (%, negative = inhibition) at 1uM” value was determined as 14.7%.
On to `CCC1CCCCN1CCCNC(=O)CSc1nc2nc(C)c(Cc3ccccc3)c(C)n2n1` (centres unmarked), for which the “hERG current change (%, negative = inhibition) at 1uM” value is given as -13.2%.
Take `O=C(CSc1nc2[nH]ncc2c(=O)n1-c1ccccc1Br)NCc1ccccc1Cl`: the “hERG current change (%, negative = inhibition) at 1uM” value was -5.9%.
Take `Cc1noc(C)c1S(=O)(=O)Nc1ccccc1Cl`: the “hERG current change (%, negative = inhibition) at 1uM” value was 14.9%.
Turning to `O=C(Nc1cccc(S(=O)(=O)c2cccc(NC(=O)C3CC3)c2)c1)C1CC1`, the “hERG current change (%, negative = inhibition) at 1uM” value is on record as 13.2%.
As to `CCN(CC)C(=O)C1CCN(C(=O)c2oc3ccc(C)cc3c2C)CC1`, the “hERG current change (%, negative = inhibition) at 1uM” value was found to be 6.87%.
For the compound `Cc1cccc(CSc2nnc(Cn3c(=O)sc4ccccc43)n2C)c1`, the “hERG current change (%, negative = inhibition) at 1uM” value is -15.2%.
As to `O=C(CSc1n[nH]c(-c2cccs2)n1)NCc1cccs1`, the “hERG current change (%, negative = inhibition) at 1uM” value turned out to be 0.801%.
With `COC(=O)c1sc2nc(SCc3cccc(Cl)c3)n(N)c(=O)c2c1C`, the “hERG current change (%, negative = inhibition) at 1uM” value was found to be 6.47%.
With `CCOC(=O)N1CCN(C/C(Cl)=C/c2ccccc2)CC1`, the “hERG current change (%, negative = inhibition) at 1uM” value came to 10.2%.
Under `COc1ccccc1C(=O)NN=C1CCN(Cc2ccccc2)CC1` stands 5.41%.
On to `Cc1cccc(C(=O)OCC(=O)NC(=O)c2ccccc2)c1O`, for which the “hERG current change (%, negative = inhibition) at 1uM” value was found to be 16.9%.
`Cc1ccc(NS(=O)(=O)Cc2ccccc2)cc1Cl`: the “hERG current change (%, negative = inhibition) at 1uM” value is listed as 12.5%.
On to `COC(=O)C1=C(C)NC2=C(C(=O)CC(C)(C)C2)C1c1cccc(C)n1` (centres unmarked), for which the “hERG current change (%, negative = inhibition) at 1uM” value is 15.2%.
As for `CCSc1nnc(NC(=O)c2nc(S(=O)(=O)Cc3ccc(F)cc3)ncc2Cl)s1`, the “hERG current change (%, negative = inhibition) at 1uM” value turned out to be 11.8%.
Under `COc1ccc(/C=C/C(=O)NCCn2c(C)cc3ccccc32)cc1OC` stands 12.1%.
Consider `Cc1ccc(N2CC(C(=O)NCc3ccccn3)CC2=O)cc1` (centres unmarked), for which the “hERG current change (%, negative = inhibition) at 1uM” value is given as 4.34%.
`COC(=O)CC1=C(C(=O)OC)C(c2cccs2)C(C#N)=C(N)O1` (centres unmarked): the “hERG current change (%, negative = inhibition) at 1uM” value is 7.67%.
For `Cc1ccc(NC(=O)c2ccc(S(=O)(=O)N3CCC(C)CC3)cc2)nc1`, the “hERG current change (%, negative = inhibition) at 1uM” value is 1.5%.
As to `Cc1ccccc1CN(c1ccc(C(=O)NCCC2=CCCCC2)cc1)S(C)(=O)=O`, the “hERG current change (%, negative = inhibition) at 1uM” value is -1.37%.
`COc1ccccc1/C=N/NC(=O)c1nnn(-c2nonc2N)c1CSC1=NCCS1`: the “hERG current change (%, negative = inhibition) at 1uM” value amounted to 0.888%.
In the case of `CCN1C(=O)[C@H]2[C@H]3[C@H](O)[C@H](O)C/C(=N\OC[C@@H](C)[C@H](OCc4ccccc4)C(C)C)[C@@H]3CC[C@H]2C1=O`, the “hERG current change (%, negative = inhibition) at 1uM” value turned out to be 9.08%.
`C=CCCC(=O)Nc1nc(C)c(-c2csc(Nc3ccccc3OC)n2)s1`: the “hERG current change (%, negative = inhibition) at 1uM” value is listed as -4.33%.
Consider `O=C(N/N=C/c1ccccc1F)c1cc2c(ccc3ccccc32)o1`, for which the “hERG current change (%, negative = inhibition) at 1uM” value is recorded as -1.27%.
For `Cc1ccc(NC(=S)N(Cc2cccs2)Cc2cc3cc(C)cc(C)c3[nH]c2=O)cc1`, the “hERG current change (%, negative = inhibition) at 1uM” value is 6.02%.
On to `CCCCc1ccc(NC(=S)NCc2cccnc2)cc1`, for which the “hERG current change (%, negative = inhibition) at 1uM” value worked out at 12%.
`Cc1nc2ccccn2c1C(=O)NNC(=S)Nc1ccccc1`: the “hERG current change (%, negative = inhibition) at 1uM” value was 13.3%.
On to `O=C1CC2(CCN(C(=O)c3c(F)cccc3Cl)CC2)Oc2ccccc21`, for which the “hERG current change (%, negative = inhibition) at 1uM” value is reported as -4.7%.
`CCO[C@@H]1OC(C(=O)NCc2nc3ccccc3[nH]2)=C[C@H](c2csc3ccccc23)[C@H]1CCCO`: the “hERG current change (%, negative = inhibition) at 1uM” value is reported as -10.7%.
Turning to `CCOC(=S)SCc1cn2ccccc2n1`, the “hERG current change (%, negative = inhibition) at 1uM” value amounted to 15.5%.
In the case of `O=C1/C(=C\c2ccncc2)CCc2ccccc21`, the “hERG current change (%, negative = inhibition) at 1uM” value worked out at 2.69%.
For `CCOP(=O)(OCC)C(C#N)=C1SCN(c2ccc(Cl)cc2)CS1`, the “hERG current change (%, negative = inhibition) at 1uM” value turned out to be 11.8%.
In the case of `COc1ccc2[nH]c(C(=O)O)c(NS(=O)(=O)c3ccc(F)cc3)c2c1`, the “hERG current change (%, negative = inhibition) at 1uM” value stood at 18%.
On to `CCSC(=O)NC1CCCCC1`, for which the “hERG current change (%, negative = inhibition) at 1uM” value came to 7.54%.
Under `NC(=O)CC(NC(=O)Cc1cccc2ccccc12)c1ccc(NCCN2CCCC2)c([N+](=O)[O-])c1` (centres unmarked) stands 1.67%; under `CC(=O)NS(=O)(=O)c1ccc(NC(=O)CCC2CCCC2)cc1`, 9.2%; under `CCN1CCSc2ccc(C(=O)NCc3cc(Br)ccc3OC)cc21`, 9.1%.
In the case of `CCOc1ccc(CNC(=O)CCCN2C(=O)C(c3ccccc3)Oc3cccnc32)cc1` (centres unmarked), the “hERG current change (%, negative = inhibition) at 1uM” value came out at 13.6%.
`CN(Cc1ccc2c(c1)OCCO2)C(=O)CN1C(=O)NC2(CCCCC2)C1=O`: the “hERG current change (%, negative = inhibition) at 1uM” value is listed as 7.98%.
As to `COc1cccc(C(=O)NC(=S)Nc2ccccc2N2CCCC2)c1`, the “hERG current change (%, negative = inhibition) at 1uM” value was 10.6%.
Next, `O=C(NNC(=O)c1ccc(O)cc1O)c1ccc(Cl)cc1`: 8.25%; `COc1ccccc1C(=O)COC(=O)Cn1c(C)csc1=O`: 2.3%.
For `CC(=O)Nc1ccc(/C=C(\C#N)C(=O)NC2CCCCC2C)cc1` (centres unmarked), the “hERG current change (%, negative = inhibition) at 1uM” value was found to be 0.771%.
For `O=C1CC(SC(=NCc2ccc3c(c2)OCO3)Nc2ccccc2)C(=O)N1c1ccccc1` (centres unmarked), the “hERG current change (%, negative = inhibition) at 1uM” value came out at 8.37%.
Regarding `COc1ccccc1NC(=O)CN1CCN(CC(=O)Nc2ccc(C)c(F)c2)CC1`, the “hERG current change (%, negative = inhibition) at 1uM” value is given as -49.1%.
For `COc1ccc(COC(=O)CCS(=O)(=O)c2ccc(C)cc2)cc1`, the “hERG current change (%, negative = inhibition) at 1uM” value is given as 24.8%.
Take `CCN1CCN(C(C(=O)NC2CCCCC2)c2ccc(Cl)cc2)CC1` (centres unmarked): the “hERG current change (%, negative = inhibition) at 1uM” value is recorded as 4.54%.
On to `O=C(NC1CCCCNC1=O)c1ccco1` (centres unmarked), for which the “hERG current change (%, negative = inhibition) at 1uM” value is 8.47%.
As to `COc1cc2ccc(=O)oc2c(CC=C(C)C)c1OC`, the “hERG current change (%, negative = inhibition) at 1uM” value is 0.29%.
Turning to `C/C(=N\NS(=O)(=O)c1ccc(C)cc1)c1ccc(Br)s1`, the “hERG current change (%, negative = inhibition) at 1uM” value is listed as 12.9%.
Take `Cc1ccc(S(=O)(=O)Nc2ccc3[nH]c(=O)[nH]c3c2)c(C)c1`: the “hERG current change (%, negative = inhibition) at 1uM” value was 11.4%.
As for `CN(C)C(=S)SCCn1c(N)nc(N(C)C)nc1=O`, the “hERG current change (%, negative = inhibition) at 1uM” value was found to be 2.37%.
For the compound `CCN(CC)S(=O)(=O)c1ccc2c(c1)N(CC(=O)Nc1cccnc1Cl)C(=O)CO2`, the “hERG current change (%, negative = inhibition) at 1uM” value amounted to 5.06%.
On to `O=C(Nc1ccc(C(F)(F)F)cc1)c1ccccc1Br`, for which the “hERG current change (%, negative = inhibition) at 1uM” value is 14.4%.
In the case of `Cc1ccc2[nH]cc(CCNC(=O)c3ccc([N+](=O)[O-])cc3)c2c1`, the “hERG current change (%, negative = inhibition) at 1uM” value is listed as 3%.
Next, `CC1CC(C)CN(S(=O)(=O)c2ccc(C(=O)N(c3ccccn3)C3CCCCC3)cc2)C1` (centres unmarked): 6.65%; `CCOC(=O)C1CCN(C(=O)c2ccc3c(=O)n4nc(Nc5cc(C)ccc5C)sc4nc3c2)CC1`: 3.92%.
Take `CN(C)CCCNC(=O)CC(c1ccccc1)c1ccccc1O` (centres unmarked): the “hERG current change (%, negative = inhibition) at 1uM” value is 4.02%.
For the compound `Cc1ccc(C)c(Nc2ncccc2C(=O)NCc2cccs2)c1`, the “hERG current change (%, negative = inhibition) at 1uM” value is reported as -1.72%.
Under `O=C1NN=C(CSc2n[nH]c(=S)s2)CS1` stands 19.3%; under `CN(c1ccccc1C(=O)Nc1ccc2ccccc2c1)S(C)(=O)=O`, 6.36%.
In the case of `COc1ccc(-c2csc3nc(C)nc(N4CCC(C)CC4)c23)cc1OC`, the “hERG current change (%, negative = inhibition) at 1uM” value is recorded as 10.4%.
As to `Cc1cc(C)c(S(=O)(=O)NCc2ccc3c(c2)cc(C)n3C)c(C)c1`, the “hERG current change (%, negative = inhibition) at 1uM” value came to 5.52%.
Next, `CC(=O)N/C(=C\c1ccccc1)C(=O)OCc1ccc(C)cc1`: -24.6%.
Next, `O=C(c1ccccc1F)c1cn(CC(=O)N2CCOCC2)c2ccccc12`: 5.13%; `COC(=O)[C@@]1(Cc2ccc(F)cc2)[C@H]2c3cc(C(=O)N(C)C)n(CCc4ccc(OC)c(Br)c4)c3C[C@H]2CN1C(=O)c1ccccc1`: 1.81%.
Take `CCc1ccccc1NC(=O)Cn1nnc(C(=O)NCc2cccs2)c1N`: the “hERG current change (%, negative = inhibition) at 1uM” value worked out at 11.9%.
`CCn1c(=O)c(=O)n(CC)c2cc(S(=O)(=O)Nc3ccc(C)cc3)ccc21`: the “hERG current change (%, negative = inhibition) at 1uM” value worked out at 7.21%.
For the compound `Cn1c(=O)c2c(ncn2Cc2cc(-c3ccccc3)no2)n(C)c1=O`, the “hERG current change (%, negative = inhibition) at 1uM” value is on record as -9.14%.
Under `COc1ccc(S(=O)(=O)N2CCCN(CC(=O)Nc3cc(NC(C)=O)ccc3OC)CC2)cc1` stands -2.83%; under `OC(COc1ccccc1CNCc1cccnc1)CN1CCc2ccccc2C1` (centres unmarked), -7.56%.
With `NC(=O)c1cc(NC(=O)c2ccc(NS(=O)(=O)c3cccs3)cc2)cc(C(N)=O)c1`, the “hERG current change (%, negative = inhibition) at 1uM” value is listed as 7.89%.
Take `COc1ccc(C2Nc3ccccc3C(=O)N2NS(=O)(=O)c2ccccc2)cc1` (centres unmarked): the “hERG current change (%, negative = inhibition) at 1uM” value is given as 9.11%.
For `COc1cccc(N(C(=O)CCl)C(C(=O)NCCc2ccccc2)c2cccs2)c1` (centres unmarked), the “hERG current change (%, negative = inhibition) at 1uM” value is reported as 4.64%.
For `CCOC(=O)N1CCN(C(=O)c2ccc3c(=O)n(CCC4=CCCCC4)c(=O)[nH]c3c2)CC1`, the “hERG current change (%, negative = inhibition) at 1uM” value is reported as 16%.
Next, `O=C1c2cccnc2Nc2ccccc2N1CCCF`: 9.97%; `O=S(=O)(c1ccc(Br)s1)N1CCc2ccccc2C1`: 6.12%; `C#CCOc1ccc(/C=C2/C(=O)ON=C2C)cc1Cl`: 20.2%.
For `CCOc1ccc(N(C)S(=O)(=O)c2ccc(-c3ccc(=O)[nH]n3)s2)cc1`, the “hERG current change (%, negative = inhibition) at 1uM” value was -6.5%.
For `COc1cc(C(C)=O)ccc1OCCN1CCC(Cc2ccccc2)CC1.O=C(O)C(=O)O`, the “hERG current change (%, negative = inhibition) at 1uM” value was -93.3%.
Regarding `Cc1cc(C)nc(CCNC(=O)c2cc(COc3ccc(F)cc3Cl)on2)n1`, the “hERG current change (%, negative = inhibition) at 1uM” value is given as -4.3%.
Under `Cc1ccccc1NC1=C/C(=N\S(=O)(=O)c2cccs2)c2ccccc2C1=O` stands 0.476%; under `CCCCCCCC(=O)N/N=C(/C)c1c(O)cc(C)oc1=O`, -14.8%.
Next, `CCOC(=O)N1CCN(C(=O)CSc2ccc(C(=O)OC)cc2[N+](=O)[O-])CC1`: 14.8%; `S=C(NC1CCCC1)N1CCN(C/C=C/c2ccccc2)CC1`: 5.52%.
In the case of `COc1ccc(C(=O)NCC(=O)NCC(=O)OCC(=O)c2ccc(C)cc2)cc1`, the “hERG current change (%, negative = inhibition) at 1uM” value stood at 11.8%.
